Source: the RNAGym collection of RNA variant scans (doi:10.7554/elife.90254)
Read counts are not given, so values of variants with three or more changes are uncertain.

B1: LINE1-mini (parent)
chain: GGCAGAGCUCAACACAGCGUGGCAAAGUGGCUGUGGCUAGACUGCC

Variants of: B1
Assay: self-cleavage, relative activity (ratio to wild type); higher = more cleavage; in vitro, sequencing; the parent is a self-cleaving ribozyme

Row | Variant | self-cleavage
1 | GGUAUGGCUCAACACAGCGUGGCAAAGUGGCUGUGGCUAGGCUGCC [C3U G5U A6G A41G] | 0.06
2 | GGUAUAGCUCAUCACAGCGUGGCAAAGUGGCUGUGGCUAGACUGCC [C3U G5U A12U] | 0.1
3 | GGUAUAGCUAAACACAGCGUGGCAAAGUGGCGGUGGCUAGACUGCC [C3U G5U C10A U32G] | 0.02
4 | GGUAUAACUCAACACAGCGUGGCAAAGGCGCUGUGGCUAGACUGCA [C3U G5U G7A U28G G29C C46A] | 0.03
5 | GGUAUAGCUCAACACAGCUCGGCAAAGUGGCUGUGGCAAAACUGCC [C3U G5U G19U U20C U38A G40A] | 0.05
6 | GGUAUAGCUCAACACAGCGUGUCAAAGUGGCUGUGGCUAGACUGCA [C3U G5U G22U C46A] | 0.3
7 | GGUAUAGCUCAACACAGCGUGGCAAAAUGGCUGUGGCUAGACUGCC [C3U G5U G27A] | 0.03
8 | GGUAUAGCUCAACACAGCGUGGCAAAGUGGCGGUGGCUAGACUGCC [C3U G5U U32G] | 0.05
9 | GGUAGAACUCCACACAGCGUGGCAAAGUGGCUGUGGCUAGACUGCC [C3U G7A A11C] | 0.01
10 | GGUAGAACUCAACACAGCGUGGCACAGUGGCUGUGGCAAGACUGCC [C3U G7A A25C U38A] | 0.07
11 | GGUAGAACUCAACACAGCGUGGCAAAGUGGCUGUGGCUCGACUGCC [C3U G7A A39C] | 0.22
12 | GGUAGAACUCAACACAGGGUGGCAAAGUGGCUGUGGCUAGACUGCC [C3U G7A C18G] | 0.1
13 | GGUAGAACUCAACACAGCCUGGCAAAGUGACUGUGGAUAGCCUGCC [C3U G7A G19C G30A C37A A41C] | 0.21
14 | GGUAGAACUCAACACAGCUUAGCAAAGUGUCUGUGGCUAGACUGCC [C3U G7A G19U G21A G30U] | 0.2
15 | GGUAGAACUCAACACAGCGUGGCAAAGUGGCUGUUGCUAGACUGCC [C3U G7A G35U] | 0.54
16 | GGUAGAACCCAAAACAGAAUGGCAAAGUGCUUGUGGCUAGACUGCC [C3U G7A U9C C13A C18A G19A G30C C31U] | 0.03
17 | GGUAGAACCCAACACAGCGUGGCAAAGGGGCUCCGGCUAAACUGCC [C3U G7A U9C U28G G33C U34C G40A] | 0.02
18 | GGUAGACCUAAACACAGCGUGGGACAGUGGCUGAGGCUAGACUGCC [C3U G7C C10A C23G A25C U34A] | 0.04
19 | GGUAGACCUCAACACAGCGUGGCAAAGUGGAUGUGGCUAGACUGCC [C3U G7C C31A] | 0.01

Row | Variant | self-cleavage
20 | GGUAGACCUCAACACACCGUGGCAAAGUGGCUGUGAGUAGACUGCC [C3U G7C G17C G36A C37G] | 0.08
21 | GGUAGACCUCAACACAGCGUGGCAAACUGGCUGUGGCGAGUCUUCC [C3U G7C G27C U38G A41U G44U] | 0
22 | GGUAGAUCUCAACUCAGGGUGGCAAAGGGGCUGUGUCUAAGCUGCC [C3U G7U A14U C18G U28G G36U G40A A41G] | 0.01
23 | GGUAGAUCUCAACUCAGCUUGGCAAAGAGGCUGUGGCUAGACUGCC [C3U G7U A14U G19U U28A] | 0.11
24 | GGUAGAUGUCAACACAGCGUGGCAAAGUGGCUGUGGCUAGACUGCC [C3U G7U C8G] | 0.06
25 | GGUAGAUCUUAACACAGCGUGGUAAAGUGGCUGUGGCUAGACUGCC [C3U G7U C10U C23U] | 0.03
26 | GGUAGAUCUCAACACAGUGUGGCAAAGUGGCUGUGGCUAGACGGCC [C3U G7U C18U U43G] | 1.17
27 | GGUAGAUCUCAACACAGCGUGGAAAAGUAGCUCUGGCUAGACUGCC [C3U G7U C23A G29A G33C] | 0.13
28 | GGUAGAUCUCAACACAACGUGGCAAAGUGGCUGUGGCUAGACUGCC [C3U G7U G17A] | 0.16
29 | GGUAGAUCUCAACACAGCGUGGCAAAGUGGCUGUGCCUAUACACCC [C3U G7U G36C G40U U43A G44C] | 0.06
30 | GGUAGAUCUCAACACAGCGUGGCAAAGUGGCAGCGGCUAGACUGCC [C3U G7U U32A U34C] | 0.22
31 | GGUAGAGCUCAACACAAAGUGGCAAAGUGGCUGUGGCUAGAUUGCC [C3U G17A C18A C42U] | 0.03
32 | GGUAGAGCUCAACACAACGUGGCAAAGUGGCUGUGGCUACACUGCC [C3U G17A G40C] | 0.03
33 | GGUAGAGCUCAACACAACGUGGCAAAGUGGCUGCGGCUAGACUGCC [C3U G17A U34C] | 0.06
34 | GGUAGAGCUCAACACACCGUGGCAGAGUAGCUGUCGCUAUACUGGC [C3U G17C A25G G29A G35C G40U C45G] | 0.01
35 | GGUAGAGCUCAACACACCGUGGCAAAGUGGCUGUGGCUAGACUGAC [C3U G17C C45A] | 0.03
36 | GGUAGAGCUCAACACAGCAUGGCAAGGUGACUGUGGCUAGACUGCC [C3U G19A A26G G30A] | 0.45
37 | GGUAGAGCUCAACACAGCAUGGCAAAGUGGCUGUGGUUAGACUGCC [C3U G19A C37U] | 0.06
38 | GGUAGAGCUCAACACAGCAUGGCAAACUGGCUAUGGGUAGACUGCC [C3U G19A G27C G33A C37G] | 0.08

Row | Variant | self-cleavage
39 | GGUAGAGCUCAACACAGCAUGGCAAAGUGGCUGUGUCUAGACUGCC [C3U G19A G36U] | 0.04
40 | GGUAGAGCUCAACACAGCUUGGCAAAGUGGCUAUGGCUAGACUGCU [C3U G19U G33A C46U] | 0.05
41 | GGUAGAGCUCAACACAGCUGGGCAAAAUGGCUGUGGCUAGGCUGCU [C3U G19U U20G G27A A41G C46U] | 0.03
42 | GGUAGAGCUCAACACAGCUUGGCAAAGUGGCUGUGGCUAGACAGCC [C3U G19U U43A] | 0.13
43 | GGUAGAGCUCAACACAGCGUAGCAAAGAGGCUGUGGCUAGACUGCC [C3U G21A U28A] | 0.42
44 | GGUAGAGCUCAACACAGCGUAGCAAAGCGGCUAUGGCUAGACUGCG [C3U G21A U28C G33A C46G] | 0.13
45 | GGUAGAGCUCAACACAGCGUAGCAAAGUGGCUGUGGCCAGACUGCC [C3U G21A U38C] | 2.2
46 | GGUAGAGCUCAACACAGCGUCAAAAAGUGGCUGUCGCUAGACAGCC [C3U G21C G22A C23A G35C U43A] | 0.06
47 | GGUAGAGCUCAACACAGCGUCGCAAAGUGGCUCUGGAUAGACUGCC [C3U G21C G33C C37A] | 0.13
48 | GGUAGAGCUCAACACAGCGUUGCAAAAUGGCUGUGGCUAGACUGUC [C3U G21U G27A C45U] | 0.1
49 | GGUAGAGCUCAACACAGCGUUGCAAAGAGACUGUGGCUAGACUUCC [C3U G21U U28A G30A G44U] | 0.12
50 | GGUAGAGCUCAACACAGCGUUGCAAAGUGGCUGUGGCGAGGCUGCC [C3U G21U U38G A41G] | 0.02
51 | GGUAGAGCUCAACACAGCGUGACAAUGUGGCUGUGGCGAGACUGCC [C3U G22A A26U U38G] | 0.01
52 | GGUAGAGCUCAACACAGCGUGACAAAGUGGAUGUGGCUAGACUGUC [C3U G22A C31A C45U] | 0.1
53 | GGUAGAGCUCAACACAGCGUGACAAAGUGGCCGUGGCUAGACUGCC [C3U G22A U32C] | 0.32
54 | GGUAGAGCUCAACACAGCGUGCCAAAGUGGCUGUGGCUAAACUGCC [C3U G22C G40A] | 0.04
55 | GGUAGAGCUCAACACAGCGUGGCAAACUGGCUAUGGCUAGACUGCC [C3U G27C G33A] | 0.22
56 | GGUAGAGCUCAACACAGCGUGGCAAAUUGGCCGUGGCCAGACUCCC [C3U G27U U32C U38C G44C] | 0.06
